Experimental data reported in paper PMC8606595, “Chimeric Antigen Receptor T Cells With Modified Interleukin-13 Preferentially Recognize IL13Rα2 and Suppress Malignant Glioma: A Preclinical Study” (Frontiers in Immunology, 2021).

What was measured:
Human IL13Rα2 = Human IL13Rα2 (human, UniProt Q14627 27-380); assay: SPR; Biacore T200; human IL13Rα1 (2,800 RU) or IL13Rα2 (3,100 RU) amine-coupled to CM5 chips in 10 mM sodium acetate pH 4.5; IL13-Fc proteins injected in twofold serial dilutions at constant flow (30 ml/min as printed); association 180 s, dissociation 600 s; regeneration 10 mM glycine pH 2.0; 1:1 fitting model; settings: both partners purified
Human IL13Rα1 = Human IL13Rα1 (human, UniProt P78552 22-427); assay: as above; settings: both partners purified
Human IL13Rα1, sequence (P78552 22-427): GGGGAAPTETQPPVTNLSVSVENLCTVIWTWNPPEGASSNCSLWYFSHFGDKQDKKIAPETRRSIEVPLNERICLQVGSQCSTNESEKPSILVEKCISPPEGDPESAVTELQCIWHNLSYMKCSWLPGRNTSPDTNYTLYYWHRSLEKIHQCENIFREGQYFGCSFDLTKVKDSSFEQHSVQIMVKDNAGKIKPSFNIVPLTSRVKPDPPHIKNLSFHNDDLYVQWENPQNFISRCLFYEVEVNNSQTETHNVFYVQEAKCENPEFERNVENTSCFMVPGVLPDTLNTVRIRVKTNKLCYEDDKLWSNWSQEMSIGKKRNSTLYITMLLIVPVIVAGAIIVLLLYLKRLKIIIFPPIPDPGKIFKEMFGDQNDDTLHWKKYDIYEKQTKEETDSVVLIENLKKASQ

Human IL13Rα2, sequence (Q14627 27-380): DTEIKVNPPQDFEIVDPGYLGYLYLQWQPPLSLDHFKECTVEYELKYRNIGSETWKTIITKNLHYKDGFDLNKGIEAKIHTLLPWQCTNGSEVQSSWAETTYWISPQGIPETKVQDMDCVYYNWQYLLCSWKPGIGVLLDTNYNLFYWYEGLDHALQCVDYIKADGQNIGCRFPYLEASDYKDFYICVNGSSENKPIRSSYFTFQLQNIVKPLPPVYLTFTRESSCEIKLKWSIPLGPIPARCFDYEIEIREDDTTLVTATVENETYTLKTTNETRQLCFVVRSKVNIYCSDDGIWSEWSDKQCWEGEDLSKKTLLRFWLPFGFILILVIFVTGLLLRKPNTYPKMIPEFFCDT

B1: WT-IL13 fused with human Fc (Fc fusion)
chain: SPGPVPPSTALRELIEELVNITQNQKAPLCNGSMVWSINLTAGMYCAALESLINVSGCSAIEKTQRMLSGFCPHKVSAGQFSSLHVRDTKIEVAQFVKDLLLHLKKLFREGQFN
modifications: Fused to human Fc (carrier left out; probably dimeric through Fc). Start taken from the paper's numbering, where residue 1 = S33. / Amine-coupled to CM5 chip; extracellular domain assumed
For B1, the Kd (Human IL13Rα2) was 0.585 nM, the koff (Human IL13Rα2) was 1.77e-05 s⁻¹ and the kon (Human IL13Rα2) was 30300 M⁻¹ s⁻¹. For the same binder, the Kd (Human IL13Rα1) was 19.7 nM, the koff (Human IL13Rα1) was 0.000632 s⁻¹ and the kon (Human IL13Rα1) was 32000 M⁻¹ s⁻¹.
